Test results published in patent US20230227547A1 (IPROGEN BIOTECH, published 2023).

Target: T1, HER2 (human epidermal growth factor receptor 2) (human, UniProt P04626)
T1 construct: whole, on cells; also called HER2 receptor; HER2/neu
Assay: flow cytometry (Alexa Fluor 488 channel) of cells kept 30 min on ice with 100 nM fluorescein-labelled anti-HER2(scFv)-Fc

- binding result: binds
B1: Anti-HER2(scFv)-Fc (Fc fusion)
scFv: QVQLLQSGAELKKPGESLKISCKGSGYSFTSYWIAWVRQMPGKGLEYMGLIYPGDSDTKYSPSFQGQVTISVDKSVSTAYLQWSSLKPSDSAVYFCARHDVGYCTDRTCAKWPEWLDNWGQGTLVTVSSGGGGSGGGGSGGGGSQSVLTQPPSVSAAPGQKVTISCSGSSSNIGNNYVSWYQQLPGTAPKLLIYGHTNRPAGVPDRFSGSKSGTSASLAISGFRSEDEADYYCASWDYTLSGWVFGGGTKLTVLGGS[human IgG1 Fc omitted]
notes: also called anti-HER2(scFv)-Fc-Fluorescein; anti-HER2(scFv)-Fc-Alexafluor405
